Assays:
[1] = molecular target: T1, high-affinity hIL-2 receptor (IL-2Rαβγ) on NK-92 cells (human, UniProt P01589 22-272; P14784 27-551; P31785 23-369); test: cell-based or functional assay
T1 sequence 1: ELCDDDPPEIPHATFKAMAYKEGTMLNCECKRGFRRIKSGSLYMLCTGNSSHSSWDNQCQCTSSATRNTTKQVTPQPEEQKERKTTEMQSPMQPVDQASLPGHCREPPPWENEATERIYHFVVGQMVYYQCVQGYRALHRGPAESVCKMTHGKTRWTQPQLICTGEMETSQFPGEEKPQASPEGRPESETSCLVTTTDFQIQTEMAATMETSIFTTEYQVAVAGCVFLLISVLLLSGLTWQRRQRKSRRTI
T1 sequence 2: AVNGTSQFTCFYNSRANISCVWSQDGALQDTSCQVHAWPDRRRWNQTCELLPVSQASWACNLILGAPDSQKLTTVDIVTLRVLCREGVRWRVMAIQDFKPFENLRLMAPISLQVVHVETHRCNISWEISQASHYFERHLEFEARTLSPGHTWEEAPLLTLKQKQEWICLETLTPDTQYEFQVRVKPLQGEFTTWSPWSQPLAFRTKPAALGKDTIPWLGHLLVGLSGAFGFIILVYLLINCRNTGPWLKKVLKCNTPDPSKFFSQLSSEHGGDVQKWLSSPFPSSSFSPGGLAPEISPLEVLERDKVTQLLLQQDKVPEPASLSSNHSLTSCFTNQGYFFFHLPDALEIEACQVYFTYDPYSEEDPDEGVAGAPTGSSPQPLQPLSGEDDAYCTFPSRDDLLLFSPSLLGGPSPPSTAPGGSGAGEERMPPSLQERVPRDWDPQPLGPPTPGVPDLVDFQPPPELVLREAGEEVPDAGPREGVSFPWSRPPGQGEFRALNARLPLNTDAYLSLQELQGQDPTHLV
T1 sequence 3: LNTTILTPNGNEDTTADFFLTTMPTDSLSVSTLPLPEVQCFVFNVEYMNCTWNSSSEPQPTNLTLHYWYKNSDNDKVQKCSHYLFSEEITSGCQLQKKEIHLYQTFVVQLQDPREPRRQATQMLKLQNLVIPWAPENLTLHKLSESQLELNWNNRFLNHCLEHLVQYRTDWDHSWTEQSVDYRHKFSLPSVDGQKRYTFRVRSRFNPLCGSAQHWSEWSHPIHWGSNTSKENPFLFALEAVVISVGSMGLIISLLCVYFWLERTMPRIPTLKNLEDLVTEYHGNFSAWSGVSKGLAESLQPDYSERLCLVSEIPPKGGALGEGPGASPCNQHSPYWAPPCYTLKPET

[2] = molecular target: T2, intermediate-affinity hIL-2 receptor complex (IL-2Rβγ) on TF1+IL-2Rβ cells (human, UniProt P14784 27-551; P31785 23-369); test: cell-based or functional assay
T2 sequence 1: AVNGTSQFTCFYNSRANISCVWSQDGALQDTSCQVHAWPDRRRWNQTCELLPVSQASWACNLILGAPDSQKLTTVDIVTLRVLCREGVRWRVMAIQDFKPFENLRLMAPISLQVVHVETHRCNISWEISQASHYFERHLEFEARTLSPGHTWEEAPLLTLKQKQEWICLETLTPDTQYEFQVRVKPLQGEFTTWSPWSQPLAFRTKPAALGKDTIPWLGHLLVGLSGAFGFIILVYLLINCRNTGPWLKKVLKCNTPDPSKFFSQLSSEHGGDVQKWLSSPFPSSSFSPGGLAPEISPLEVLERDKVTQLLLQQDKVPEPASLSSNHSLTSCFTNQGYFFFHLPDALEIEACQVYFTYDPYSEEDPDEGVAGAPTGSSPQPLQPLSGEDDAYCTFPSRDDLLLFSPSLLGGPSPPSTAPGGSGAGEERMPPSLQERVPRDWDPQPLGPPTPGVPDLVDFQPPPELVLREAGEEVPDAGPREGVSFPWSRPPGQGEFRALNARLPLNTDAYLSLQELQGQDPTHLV
T2 sequence 2: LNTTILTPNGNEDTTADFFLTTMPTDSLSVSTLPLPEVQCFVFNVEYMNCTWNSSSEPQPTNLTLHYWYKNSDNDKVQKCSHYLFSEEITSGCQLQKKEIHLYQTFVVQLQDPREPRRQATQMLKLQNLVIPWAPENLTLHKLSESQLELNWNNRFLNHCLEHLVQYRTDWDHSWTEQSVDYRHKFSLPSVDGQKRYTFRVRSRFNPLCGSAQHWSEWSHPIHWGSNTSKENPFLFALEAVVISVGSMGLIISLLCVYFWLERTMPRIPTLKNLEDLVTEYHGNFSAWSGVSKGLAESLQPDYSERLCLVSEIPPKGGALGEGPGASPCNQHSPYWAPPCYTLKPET

B1: hCD25-L20-hIL-2 Nterm light chain df (other)
heavy: EVQLVESGGGLVQPGRSLKLSCAVSGFTFSDYAMAWVRQAPKKGLEWVATISYDGSRTYYRDSVKGRFTISRDNAKITLYLQMDSLRSEDTATYYCARHGSGYFDYWGQGVMVTVSS[not shown - human IgG1 constant region]
light: ELCDDDPPEIPHATFKAMAYKEGTMLNCECKRGFRRIKSGSLYMLCTGNSSHSSWDNQCQCTSSATRNTTKQVTPQPEEQKERKTTEMQSPMQPVDQASLPGHCREPPPWENEATERIYHFVVGQMVYYQCVQGYRALHRGPAESVCKMTHGKTRWTQPQLICTSGGGGSGGGGSGGGGSGGGS[not shown - about 150 residues]DTVLTQSPALAVSPGERVTISCRASESVRTGVHWYQQKPGQQPKLLIYGASNLESGVPARFSGSGSGTDFTLTIDPVEADDTATYFCQQSWNDPFTFGSGTKLEIKRTVAAPSVFIFPPSDEQLKSGTASVVCLLNNFYPREAKVQWKVDNALQSGNSQESVTEQDSKDSTYSLSSTLTLSKADYEKHKVYACEVTHQGLSSPVTKSFNRGEC
- Fold change from rhIL-2 (NK-92) [1]: 15100 fold
- Fold change from rhIL-2 (TF1 + IL-2Rβ) [2]: ~542 fold

B2: hCD25-L20-hIL-2 Nterm light chain L6 fusion (other)
heavy: EVQLVESGGGLVQPGRSLKLSCAVSGFTFSDYAMAWVRQAPKKGLEWVATISYDGSRTYYRDSVKGRFTISRDNAKITLYLQMDSLRSEDTATYYCARHGSGYFDYWGQGVMVTVSS[not shown - human IgG1 constant region]
light: ELCDDDPPEIPHATFKAMAYKEGTMLNCECKRGFRRIKSGSLYMLCTGNSSHSSWDNQCQCTSSATRNTTKQVTPQPEEQKERKTTEMQSPMQPVDQASLPGHCREPPPWENEATERIYHFVVGQMVYYQCVQGYRALHRGPAESVCKMTHGKTRWTQPQLICTSGGGGSGGGGSGGGGSGGGS[not shown - about 150 residues]SGGGGSDTVLTQSPALAVSPGERVTISCRASESVRTGVHWYQQKPGQQPKLLIYGASNLESGVPARFSGSGSGTDFTLTIDPVEADDTATYFCQQSWNDPFTFGSGTKLEIKRTVAAPSVFIFPPSDEQLKSGTASVVCLLNNFYPREAKVQWKVDNALQSGNSQESVTEQDSKDSTYSLSSTLTLSKADYEKHKVYACEVTHQGLSSPVTKSFNRGEC
- Fold change from rhIL-2 (NK-92) [1]: 631 fold
- Fold change from rhIL-2 (TF1 + IL-2Rβ) [2]: 46 fold

B3: hCD25-L20-hIL-2 Cterm heavy chain df (other)
heavy: EVQLVESGGGLVQPGRSLKLSCAVSGFTFSDYAMAWVRQAPKKGLEWVATISYDGSRTYYRDSVKGRFTISRDNAKITLYLQMDSLRSEDTATYYCARHGSGYFDYWGQGVMVTVSS[not shown - human IgG1 constant region]ELCDDDPPEIPHATFKAMAYKEGTMLNCECKRGFRRIKSGSLYMLCTGNSSHSSWDNQCQCTSSATRNTTKQVTPQPEEQKERKTTEMQSPMQPVDQASLPGHCREPPPWENEATERIYHFVVGQMVYYQCVQGYRALHRGPAESVCKMTHGKTRWTQPQLICTSGGGGSGGGGSGGGGSGGGS[not shown - about 150 residues]
light: DTVLTQSPALAVSPGERVTISCRASESVRTGVHWYQQKPGQQPKLLIYGASNLESGVPARFSGSGSGTDFTLTIDPVEADDTATYFCQQSWNDPFTFGSGTKLEIKRTVAAPSVFIFPPSDEQLKSGTASVVCLLNNFYPREAKVQWKVDNALQSGNSQESVTEQDSKDSTYSLSSTLTLSKADYEKHKVYACEVTHQGLSSPVTKSFNRGEC
- Fold change from rhIL-2 (NK-92) [1]: 149 fold
- Fold change from rhIL-2 (TF1 + IL-2Rβ) [2]: ~104 fold
